# Data published in PubChem BioAssay AID1768 (National Center for Advancing Translational Sciences (NCATS), 2009).
# Where “and” joins values, the source holds several entries; their conditions need not be identical. Identical values can stand only once. Among all 270,000 compounds or so, about 620 (0.23%) were called active. This list was built around the results that the source calls inconclusive (neither active nor inactive); the mix of calls is not that of the screen. Calls follow the shape of the dose curve; as a rule, active = well fitted inhibition curve with a large enough effect in the polarisation, with a control signal flat (not every such curve was filed as active); inconclusive = small, poorly fitted or top-dose-only effect, or effect the other way, or a change in a side signal; inactive = no such curve, though single readings can be large or run the other way; the % refers to the polarisation. Potencies beside an inconclusive call are fits to weak or partial responses and may not hold up. A note “side channel” means that the fit belongs to a control or component signal, not to the main read-out.
# Molecular target: Menin (Homo sapiens) (UniProt O00255)
# Chain of UniProt O00255 (O00255 whole entry, looked up): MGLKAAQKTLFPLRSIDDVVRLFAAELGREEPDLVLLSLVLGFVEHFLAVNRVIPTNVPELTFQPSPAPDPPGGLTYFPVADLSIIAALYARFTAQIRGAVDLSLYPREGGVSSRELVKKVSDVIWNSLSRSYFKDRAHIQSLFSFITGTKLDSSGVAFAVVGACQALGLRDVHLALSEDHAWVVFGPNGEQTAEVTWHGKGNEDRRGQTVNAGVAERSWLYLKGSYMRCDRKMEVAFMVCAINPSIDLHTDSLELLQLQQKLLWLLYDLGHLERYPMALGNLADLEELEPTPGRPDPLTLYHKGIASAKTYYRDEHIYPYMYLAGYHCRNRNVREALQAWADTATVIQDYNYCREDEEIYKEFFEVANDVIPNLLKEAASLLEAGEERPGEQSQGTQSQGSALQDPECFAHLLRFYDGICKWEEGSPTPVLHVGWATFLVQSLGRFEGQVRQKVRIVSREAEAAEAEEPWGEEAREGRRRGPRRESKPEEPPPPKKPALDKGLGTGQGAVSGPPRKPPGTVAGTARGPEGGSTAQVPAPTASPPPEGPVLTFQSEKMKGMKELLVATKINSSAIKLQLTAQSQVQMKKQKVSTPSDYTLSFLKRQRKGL
# Assay: qHTS Assay for Inhibitors Targeting the Menin-MLL Interaction in MLL Related Leukemias: Competition With Texas Red Labeled MLL-derived Mutant Peptide
# Conditions: fluorescence polarization; series mostly up to 61.6 µM
# Potency is read from the fitted curve at half-maximal effect; tags tell the direction and shape of the fitted curve or compound fluorescence and quenching.
row,SMILES,Potency
1,COc1ccc(C(C)=O)cc1CSc1nnc(-c2ccccc2O)n1-c1ccccc1,"inconclusive: 2.82 µM [inhibitor, full curve]"
2,CC(=O)[C@]1(O)Cc2c(O)c3c(c(O)c2[C@@H](O[C@H]2C[C@H](N)[C@H](O)[C@H](C)O2)C1)C(=O)c1ccccc1C3=O,"inconclusive: 25.1 µM [fluorescent, side channel, partial curve] and inconclusive: 28.2 µM [fluorescent, partial curve]"
3,O=C(O)CCN1C(=O)/C(=C\c2ccncc2)SC1=S,inactive
4,CC1=N/C(=C\c2ccc([N+](=O)[O-])cc2)C(=O)N1c1ccc(F)cc1F,"inconclusive: 20 µM [quencher, side channel, partial curve]"
5,COc1ccc(OC)c(NC(=O)c2cc(-c3cc(C)c(C)cc3O)n[nH]2)c1,"inconclusive: 28.2 µM [fluorescent, side channel, single point]"
6,Cc1ccc(NC(=O)NCc2cccn2C)cc1C,inactive
7,Cc1cccc(C(=O)Nc2ccccc2-c2nnn(CC(=O)Nc3ccc4c(c3)OCCO4)n2)c1,"inconclusive: 11.2 µM [inhibitor, partial curve]"
8,Oc1[nH]c(=S)sc1/C=C1\C(c2ccccc2)=Nc2ccccc21,"inconclusive: 22.4 µM [quencher, side channel, partial curve]"
9,Cn1c(=O)c(-c2ccc(F)cc2)nc2cnc(OCc3ccccc3)nc21,"inconclusive: 31.6 µM [fluorescent, side channel, partial curve]"
10,O=[N+]([O-])c1cccc(N/N=C/c2cccc(O)c2O)c1,"inconclusive: 15.8 µM [quencher, side channel, partial curve]"
11,C=CCc1cccc(CNc2nc3ccccc3n2C(C)C)c1O,"inconclusive: 15.8 µM [quencher, side channel, partial curve]"
12,C[n+]1c2n(c3ccccc31)N=C(c1ccccc1)CS2,"inconclusive: 22.4 µM [inhibitor, partial curve]"
13,O=C(N/N=C/c1ccc([N+](=O)[O-])s1)c1ccccc1,"inconclusive: 22.4 µM [quencher, side channel, single point]"
14,Cc1ccc(OCCN2CCN(C(=O)CCC(=O)Nc3nnc(C(C)C)s3)CC2)cc1,"inconclusive: 39.8 µM [inhibitor, single point]"
15,CCNC(=S)N(Cc1ccc(OC)cc1)C1CC(=O)N(c2ccc(OCC)cc2)C1=O (stereo unspecified),"inconclusive: 10 µM [quencher, side channel, partial curve]"
16,C#CCOc1c(Cl)cc(/C=C2/C(=O)ON=C2C)cc1OC,"inconclusive: 25.1 µM [quencher, side channel, single point]"
17,COc1ccc(C(O)(CCN2CCCCC2)C2CCCCC2)cc1 (stereo unspecified),"inconclusive: 39.8 µM [inhibitor, partial curve]"
18,Cn1nc(-c2ccccc2)c(C#N)c1Sc1cccc(Cl)c1,"inconclusive: 7.08 µM [inhibitor, single point]"
19,Cc1ccc(C)c(S(=O)(=O)Nc2ccc(O)cc2)c1,inactive

row,SMILES,Potency
1,CC(C)(C)[C@@H]1C=C(C(=O)N2CCN(Cc3ccccc3)CC2)O[C@H](OCc2ccc(CO)cc2)C1,"inconclusive: 11.2 µM [fluorescent, side channel, partial curve]"
2,CN(C)c1ncc2nc(-c3ccc(Cl)cc3)c(=O)n(Cc3ccc(F)cc3)c2n1,"inconclusive: 35.5 µM [fluorescent, side channel, single point]"
3,Cc1ccc(NS(=O)(=O)c2cc3c4c(cccc4c2)C(=O)NC3=O)cc1,"inconclusive: 39.8 µM [quencher, side channel, single point]"
4,COc1ccc(C(=O)Nc2ccc(Cl)c(S(=O)(=O)Nc3ccccc3OC)c2)cc1,"inconclusive: 39.8 µM [inhibitor, single point]"
5,Cn1c(=O)c(C(=O)NCc2ccc(Cl)cc2)c(O)c2ccccc21,"inconclusive: 39.8 µM [inhibitor, single point]"
6,Cc1ccc(Nc2nc(NCCO)nc3c2cnn3C)cc1Cl,"inconclusive: 10 µM [inhibitor, partial curve]"
7,CSc1ccc(CNC(=O)Cc2ccc(NC(=O)C3=C(C)OCCS3)cc2)cc1,"inconclusive: 25.1 µM [fluorescent, side channel, single point]"
8,CC1CCN(S(=O)(=O)c2nnc(NC(=O)c3ccccc3Br)s2)CC1,"inconclusive: 31.6 µM [quencher, side channel, single point]"
9,CCOC(=O)c1sc2nc3c(SCC(=O)O)cc(C(=O)c4ccccc4O)cn3c(=O)c2c1C,"inconclusive: 4.47 µM [inhibitor, full curve]"
10,COc1cccc(Cn2c(Oc3cccc(C)c3)nc3c2c(=O)n(C)c(=O)n3C)c1,"inconclusive: 39.8 µM [inhibitor, single point]"
11,COc1ccc(NC(=O)Nc2cccs2)cc1OC,"inconclusive: 22.4 µM [quencher, side channel, partial curve]"
12,O=C1NC(=S)S/C1=C\c1ccc(SCc2ccco2)o1,"inconclusive: 3.16 µM [fluorescent, side channel, full curve]"
13,Cc1c(N=C2C=CC(=O)c3ccccc32)c(=O)n(-c2ccccc2)n1C,"inconclusive: 7.94 µM [inhibitor, partial curve]"
14,COc1cc2[nH]c(=S)n(Cc3ccc(F)cc3)c(=O)c2cc1OC,"inconclusive: 35.5 µM [inhibitor, single point]"
15,COc1cccc2[nH]c3c(Cl)ncnc3c12,"inconclusive: 22.4 µM [inhibitor, single point]"
16,Cc1cc2oc(=O)cc(CN(C)Cc3cccc(F)c3)c2cc1C,"inconclusive: 14.1 µM [fluorescent, side channel, partial curve]"
17,Cc1ccc(C)c(NC(=O)NCCN2CCCCC2)c1,"inconclusive: 39.8 µM [inhibitor, partial curve]"
18,COc1ccc(-c2nc3cnc(Nc4ccccc4)nc3n(Cc3cccs3)c2=O)cc1,"inconclusive: 3.98 µM [inhibitor, full curve, poor fit]"
19,CCOC(=O)N1CCC(N2Cc3cccc(C(=O)Nc4ccc(CC)cc4)c3C2=O)CC1,inactive

row,SMILES,Potency
1,O=C1CSC(c2nn(-c3ccccc3)cc2-c2cc3ccccc3oc2=O)N1Cc1ccco1 (stereo unspecified),"inconclusive: 8.91 µM [inhibitor, partial curve]"
2,Cc1cc2ccccc2n1CCNC(=O)C1CCCC1,"inconclusive: 39.8 µM [fluorescent, side channel, single point]"
3,COc1ccccc1-n1cnnc1SCc1csc(-c2ccccc2)n1,"inconclusive: 20 µM [fluorescent, side channel, single point]"
4,C/C(=N\NC(=O)c1cc(C(C)(C)C)[nH]n1)C12CC3CC(CC(C3)C1)C2,"inconclusive: 3.16 µM [fluorescent, side channel, partial curve]"
5,O=C(O)C(Oc1ccc2cc(-c3ccc(Cl)cc3)c(=O)oc2c1)c1ccccc1 (stereo unspecified),"inconclusive: 14.1 µM [quencher, side channel, partial curve]"
6,O=C(COC(=O)c1ccc(Br)o1)Nc1nc2ccccc2s1,"inconclusive: 31.6 µM [quencher, side channel, single point]"
7,Cc1ccc(NC(=S)C2=C(O)c3sccc3N(C)S2(=O)=O)cc1,"inconclusive: 35.5 µM [quencher, side channel, single point]"
8,COc1cc(/C=C2/C(=O)NN(c3ccc(Cl)c(Cl)c3)C2=O)cc([N+](=O)[O-])c1O,"inconclusive: 12.6 µM [quencher, side channel, partial curve]"
9,Cc1cc(C)n(-c2nc3ccccc3n3nnnc23)n1,"inconclusive: 0.631 µM [inhibitor, full curve, poor fit]"
10,N#Cc1c(-c2ccco2)cc(-c2ccc(F)cc2)nc1N,"inconclusive: 20 µM [quencher, side channel, partial curve]"
11,COc1ccccc1/C=C/C=C1N=C(/C=C/c2ccc(Cl)cc2)OC/1=O,"inconclusive: 28.2 µM [quencher, side channel, single point]"
12,CCCCOC(=O)c1cc(=O)[nH]c2ccc(C)cc12,"inconclusive: 28.2 µM [fluorescent, side channel, single point]"
13,COC(=O)c1cc(NC(=O)/C=C/c2ccccc2)ccc1O,"inconclusive: 15.8 µM [quencher, side channel, partial curve]"
14,COc1ccc(CC(=O)OCc2cc3ccc(C)cc3[nH]c2=O)cc1,"inconclusive: 28.2 µM [fluorescent, side channel, single point]"
15,O=C(NC(=S)Nc1cc(Cl)ccc1N1CCOCC1)c1ccccc1[N+](=O)[O-],"inconclusive: 7.08 µM [quencher, side channel, full curve]"
16,CNC(=S)N1CCN(c2c(F)cc3c(=O)c(C(=O)O)cn(C4CC4)c3c2OC)CC1C (stereo unspecified),inactive
17,CC(C)CC(=O)OC1C(N2CCOCC2)c2c(ccc(/C=C/C(=O)N3CCOCC3)c2O)OC1(C)C (stereo unspecified),"inconclusive: 8.91 µM [fluorescent, side channel, partial curve]"
18,COc1ccc(NC(=O)Nc2ccc(OCc3ccccc3)cc2)cn1,"inconclusive: 11.2 µM [quencher, side channel, partial curve]"
